Source: publication PMC4992631 (Experimental neurology, 2016)

Target: the molecule itself
Assay: SDS-PAGE and immunoblot of SDS-stable dimers

B1: Pseudophosphorylated S422E tau (natural protein)
chain: not shown
stoichiometry N: 2
